Data reported in the supplement of paper PMC3334620.
In all, about 33,000 sequences were measured (“E-score (-0.5 to 0.5)”: median about -0.01, highest 2% from about 0.26 on). The list shows a part of the results.

Biological target: Ste12 (UniProt P13574)
Assay: PBM E-score (8-mer binding enrichment) (E-score (-0.5 to 0.5)); higher = stronger / more preferred TF binding; most listed sequences are background and not binding sites
Conditions: protein concentration: 200 nM; construct: GST-DNA-binding domain
Description: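 Universal 'all 10-mer' protein binding microarrays (Agilent AMADID 015681) probed with GST-tagged S. cerevisiae TFs (full-length or DBD) made by in vitro transcription/translation (PURExpress), about 100-200 nM. Bound TF was detected with fluorescent anti-GST. Each ungapped 8-mer (which stands for itself and its reverse complement) is scored by the PBM enrichment score (E-score), a modified Wilcoxon-Mann-Whitney statistic from -0.5 to +0.5, computed with the Universal PBM Analysis Suite. Scale: above 0.35 generally sequence-specific binding.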

Sequence | PBM E-score
GCACTTCC | -0.114
ACTCGCTA | -0.11
AATACCTG | -0.00358
CCTCCGAA | -0.187
GAACAGGC | -0.0496
AATAGCGA | 0.121
AAACCACT | 0.126
GCCCGGAC | -0.121
CTGATTGA | 0.075
ACCGATTA | 0.00932
AATAGGTC | 0.0223
AACGATGA | 0.0695
ACCCATAT | 0.0578
GTTTACGA | 0.0472
ACTCGGAG | 0.0551
CCGCTCCG | -0.0939
CAGGCGCG | -0.101
CGAGAGCG | -0.077
TACTATAA | 0.14
CAGCAACC | -0.0222
TGTATAAA | 0.018
AAACCCTC | 0.164
ACAGAACC | -0.23
TATCAAGA | 0.124
AACGCTTG | -0.0486

Sequence | PBM E-score
ACCTGATC | -0.0449
CTCTTAAC | 0.112
ACGAGAAC | -0.0536
GCACGGTA | -0.285
CTGACTCC | -0.0506
ATGTACGC | -0.21
GCCCGCAC | -0.0446
ACGATATG | 0.0363
ACATTTAA | 0.32
ATAATGCG | -0.0284
GGCTCCCC | -0.0423
CGGGATAC | 0.193
ATCATGTG | 0.00622
AACTTAGT | -0.0656
AAACTACA | 0.206
CATCGAAC | 0.00393
ACGGCAGA | 0.0125
ACTGATCG | -0.165
GCCTGGGA | -0.23
AGCACCCA | -0.025
ATACGAAC | -0.0175
GAGGGGGA | -0.175
CTCCCAGA | -0.165
GCCATGGC | -0.119
ACAGAAGC | -0.0242

Sequence | PBM E-score
AGTTCCTA | 0.036
CGTCACAG | 0.241
ACGCACAC | 0.0111
AGTGTGAT | -0.0705
ATAAGCGA | 0.124
GAGAAGTA | 0.0345
ATTGCACA | -0.0945
CGCACGAC | -0.18
CGGGGAGC | 0.124
TATAACAA | 0.215
ATTTCGTC | 0.0673
CCCGAGGG | -0.055
GTGAAGTA | 0.0422
ACCCACCT | 0.0687
AGTCGAAT | -0.11
AGGTGGGC | -0.143
AACCGTTC | 0.0503
CCTGTCAC | -0.0246
CCGACAAC | 0.0301
AATGAGAA | 0.0724
CCTGTACC | -0.139
AGTACCTC | -0.116
GTTTAACA | 0.0355
GTGCCTTA | -0.039
CCTCCACA | -0.115

Sequence | PBM E-score
CAAGTTGC | -0.0129
GAACAGGA | -0.14
ATGTCTAA | 0.0254
AGTGATAC | 0.0953
GTCACGAC | -0.0172
ATAACCAC | 0.172
CCCAACAG | -0.151
AAATCAGT | 0.139
ATTGGAGC | -0.0227
CGCCGTTA | -0.0556
GGTTCCCA | -0.219
GGAATGAC | -0.0387
AAGTCACA | 0.0917
CAAACGCC | 0.0326
CAGACGAC | -0.258
ACGTTAGA | 0.103
AAGAATCT | -0.0844
GACACCCA | -0.0387
GGGCCAGA | -0.0832
ACGTTCAT | -0.158
ATCCGCCA | -0.12
GATATCGA | 0.0654
GAACCAAC | 0.0674
ACTCTTAG | -0.0071
GATCTCCA | -0.0207

Sequence | PBM E-score
GATACGAC | -0.0468
GGCTTCCC | -0.197
AGGTCGAT | 0.132
GGTTCCAA | 0.225
ACAACTAG | -0.118
AACAGCGC | -0.0225
TCTCCTAA | -0.00062
AAGCCTCA | -0.238
TCGAAAAA | 0.238
AGGCATGA | -0.0765
ACTCCTCC | -0.0302
AATGCTAT | -0.0169
GGGCTAGA | -0.177
AAACCGTC | 0.0495
TACTTCGA | 0.21
ACGTAAAC | -0.0335
GGGCCTCA | -0.0796
GGAGCTTA | -0.219
ACTTTATC | 0.102
GAACTCCC | 0.0278
CGATTTGA | 0.129
GACCCCGA | -0.0406
GGGTGGAC | -0.226
AGCTGCAA | -0.0393
ACCGACTA | -0.175

Sequence | PBM E-score
GTCGGCAA | -0.133
CCTGTTGC | 0.111
GGGTCTCA | -0.0397
CAGCGCCC | -0.0741
CTAATTGC | 0.13
GGGATAAC | -0.0162
AATAGGCT | 0.0616
AAGACCCG | -0.0735
CAAATGCC | -0.227
CCGAGCGA | 0.0317
GCCCGACA | 0.205
CGCGTCCG | 0.0389
ACGATGAC | -0.173
AACCGATG | 0.113
ATCTTCCC | 0.131
CCAAGATC | -0.164
GTCAATCA | 0.00113
AAATGTCT | 0.0539
AATGAGCC | -0.076
ACCGGGCA | -0.18
ATGCCTCG | 0.00724
AAAGCTGC | 0.0388
AGAGAGGG | -0.255
CATGCAGC | -0.122
GGAGTGCC | -0.269

Sequence | PBM E-score
CATAAGAG | -0.0402
AGAAGCTC | -0.223
AACGGTGG | -0.128
TCGAGGAA | 0.0493
CCCCGAGA | 0.066
GCCTACAA | -0.0578
AACACTTG | -0.0983
GTTCTAAA | 0.223
CGGAGTTA | -0.0439
CGCTCCAA | -0.189
ACGTTTCC | -0.0394
CGTCCGCA | -0.192
GATGATTA | 0.0318
CGCTCGTC | -0.202
ACTGCACG | 0.0119
CCTAAGTA | -0.00863
AACGGCCT | -0.0876
AGTTAGAA | 0.0897
CCGGTGTA | 0.0161
AGTCTATC | -0.15
CCCTTAAG | -0.091
GGTGAACC | -0.00551
